Source: patent US20200199647

Key:
[1] = molecular target: R15A (human PPP1R15A amino acids 325-636, N-terminal MBP-tag, C-terminal His6-tag) (UniProt O75807)
[2] = molecular target: R15B (human PPP1R15B amino acids 340-698, N-terminal MBP-tag, C-terminal His6-tag) (UniProt Q5SWA1)
[3] = molecular target: R3A (human PPP1R3A amino acids 1-240, N-terminal MBP-tag, C-terminal His6-tag) (UniProt Q16821)
Sequence of UniProt Q16821 (Q16821 whole entry, looked up, the tested form may be a part): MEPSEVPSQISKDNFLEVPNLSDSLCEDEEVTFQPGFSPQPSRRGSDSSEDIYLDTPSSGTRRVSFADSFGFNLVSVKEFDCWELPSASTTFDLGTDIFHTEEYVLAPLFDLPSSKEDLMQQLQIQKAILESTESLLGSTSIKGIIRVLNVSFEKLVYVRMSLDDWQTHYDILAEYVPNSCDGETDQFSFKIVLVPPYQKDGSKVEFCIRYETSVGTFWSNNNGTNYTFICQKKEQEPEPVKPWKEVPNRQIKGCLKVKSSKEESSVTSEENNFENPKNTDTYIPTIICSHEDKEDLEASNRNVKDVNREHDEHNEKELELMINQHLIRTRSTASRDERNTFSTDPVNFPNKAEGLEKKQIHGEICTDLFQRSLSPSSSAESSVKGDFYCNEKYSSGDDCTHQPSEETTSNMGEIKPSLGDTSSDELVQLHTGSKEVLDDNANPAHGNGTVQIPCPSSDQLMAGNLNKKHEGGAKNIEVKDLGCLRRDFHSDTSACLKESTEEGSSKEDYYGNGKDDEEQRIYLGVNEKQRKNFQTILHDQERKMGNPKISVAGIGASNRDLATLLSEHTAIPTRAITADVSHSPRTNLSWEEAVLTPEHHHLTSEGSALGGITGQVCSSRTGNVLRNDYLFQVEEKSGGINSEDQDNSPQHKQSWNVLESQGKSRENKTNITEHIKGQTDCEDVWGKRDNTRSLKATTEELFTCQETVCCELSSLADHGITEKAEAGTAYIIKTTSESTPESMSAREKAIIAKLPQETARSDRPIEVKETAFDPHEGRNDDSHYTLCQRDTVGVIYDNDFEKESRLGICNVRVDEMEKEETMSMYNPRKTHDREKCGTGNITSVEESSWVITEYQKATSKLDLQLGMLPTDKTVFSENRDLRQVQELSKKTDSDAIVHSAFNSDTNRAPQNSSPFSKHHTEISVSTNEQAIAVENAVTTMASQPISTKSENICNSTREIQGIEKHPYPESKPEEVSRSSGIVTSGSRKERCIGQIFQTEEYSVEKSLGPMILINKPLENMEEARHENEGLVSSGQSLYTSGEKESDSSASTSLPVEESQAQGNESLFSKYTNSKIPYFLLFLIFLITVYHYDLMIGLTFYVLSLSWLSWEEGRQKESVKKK

Sequence of UniProt Q5SWA1 (Q5SWA1 other isoform, or with tags, fused parts or gaps): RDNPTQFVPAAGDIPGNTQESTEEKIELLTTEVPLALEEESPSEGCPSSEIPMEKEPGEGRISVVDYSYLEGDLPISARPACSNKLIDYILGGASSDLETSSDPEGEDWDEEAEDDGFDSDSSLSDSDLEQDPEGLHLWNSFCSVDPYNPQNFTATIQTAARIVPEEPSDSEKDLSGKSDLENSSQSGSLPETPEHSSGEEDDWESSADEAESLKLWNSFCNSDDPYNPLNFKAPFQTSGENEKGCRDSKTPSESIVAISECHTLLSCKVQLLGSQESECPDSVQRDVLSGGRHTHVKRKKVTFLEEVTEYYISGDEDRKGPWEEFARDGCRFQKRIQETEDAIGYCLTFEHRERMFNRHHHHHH
Sequence of UniProt O75807 (O75807 whole entry, looked up, stated change not applied, the tested form may be a part): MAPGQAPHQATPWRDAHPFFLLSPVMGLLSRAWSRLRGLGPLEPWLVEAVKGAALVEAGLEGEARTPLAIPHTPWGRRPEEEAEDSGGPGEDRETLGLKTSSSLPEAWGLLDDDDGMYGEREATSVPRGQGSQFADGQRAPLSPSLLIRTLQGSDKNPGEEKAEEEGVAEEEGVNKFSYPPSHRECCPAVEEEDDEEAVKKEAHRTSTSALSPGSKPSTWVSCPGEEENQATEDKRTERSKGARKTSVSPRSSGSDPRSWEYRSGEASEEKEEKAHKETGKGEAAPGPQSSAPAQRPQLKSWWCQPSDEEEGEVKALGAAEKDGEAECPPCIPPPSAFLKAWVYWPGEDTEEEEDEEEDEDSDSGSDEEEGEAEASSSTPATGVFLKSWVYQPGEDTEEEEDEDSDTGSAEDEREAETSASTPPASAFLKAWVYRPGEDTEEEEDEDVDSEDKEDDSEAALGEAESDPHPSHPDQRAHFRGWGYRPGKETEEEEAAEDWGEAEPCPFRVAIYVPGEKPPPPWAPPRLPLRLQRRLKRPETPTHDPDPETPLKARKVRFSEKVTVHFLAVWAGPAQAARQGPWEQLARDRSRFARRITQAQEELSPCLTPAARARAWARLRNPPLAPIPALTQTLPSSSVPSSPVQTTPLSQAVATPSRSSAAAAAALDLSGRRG

PP1c (human PP1cα […], N-terminal Thio6/His6 tag) (chain not printed)
dephosphorylation of P-eIF2α (1 µM) by PP1c (10 nM), immunoblot / Phos-tag gel [1]: Addition of R15A to a sub-stoichiometric concentration (10 nM) of PP1c enabled the complete dephosphorylation of eIF2α while PP1c (10 nM) alone had no effect
dephosphorylation of P-eIF2α (1 µM) by PP1c (10 nM), immunoblot / Phos-tag gel [2]: addition of R15B, also converted the inactive PP1c (10 nM) into a proficient eIF2α phosphatase
dephosphorylation of P-eIF2α (1 µM) by PP1c (1 µM), immunoblot [3]: R3A (glycogen-targeting subunit of protein phosphatase 1 (GM)), inhibited the dephosphorylation of eIF2α by PP1c
